The RNAGym collection of RNA variant scans (doi:10.7554/elife.90254)
The source gives no read counts; variants with many changes may rest on few reads.

B1: LINE1-mini (parent)
chain: GGCAGAGCUCAACACAGCGUGGCAAAGUGGCUGUGGCUAGACUGCC

Variants of: B1
Test: self-cleavage, relative activity (ratio to wild type); higher = more cleavage; in vitro, sequencing; the parent is a self-cleaving ribozyme

Variant	self-cleavage
G19C G21A A24U G40A C45A	0.05
G19A U20A G21C C31U	0.14
G19C A24U A26C G35A	0.02
G19A U28C G29U	0.64
G19A G30A C45A	0.47
G19A G33A G36C	0.02
G19U U28A G36C	0.05
G19U U34A U38C	0.09
G19C A25C G40C	0.04
G19U G29A C37U G44U	0.02
U20A C31A C45A	0.06
G19C G27U U32C G33A	0.02
G19A U20A G29U C37U	0.03
G19A G27A U28A C42G	0
G19C A26C G29A C31U U34G C46G	0.03
G19A G22C C23A	0.25
G19A G21A G27A C45U	1.46
G19A U43G G44A	0
G19U G27U C42G	0
U20A A41C U43C	0.04
U20A C23U U38C	0.42
G19A U32G C45G	0.06
U20A A25C C31G	0.06
G19U G29A G36A	0.3

Variant	self-cleavage
G19A G22A C31G	0.44
G19U G22A U34A	0.18
G19C G21U U34G	0.93
U20A A24U G44U	0.15
G19A G22A A41C	0.01
G19U A24U A26G G36C C42U	0.03
G19C G21C G30C	1.01
G19U A24G G36A A39C	1.16
G19A U20G C31A	0.12
G19C G22A C31A U32A G35A	0.06
G19C G27U G40U	0.11
G19U U20C G29A G36U G44U	0.09
G19A G33C U34C C42U	0.09
G19A U28G G35A	0.22
G19U A26C C31U	0.52
G19U U32G G44U	0.03
G19A G29U C31A	0.8
G19A G27U A39C C46A	0.08
G19U U28G C37A A41G	0
G19A U20C C31U C46A	0.17
G19C G40C G44U	0.06
G19U A25G A26C G40A	0.02
G19A G22A G27U	0.08
G19U A39U A41U	0.38

Variant	self-cleavage
G19A G27U U28G U32G G36U	0.05
G19U U32G C37A C42U	0.06
G19A G33A G35U	0.06
G19A U20A U43A	0.06
G19A U20A A41U U43A	0.12
G19C G22A G35A C42U	0.08
G19U A25G G40C	0.03
G19A G22A A39U	1.2
G19C U20G G29C G30C G35U	0.03
U20A A25G G27U A39C	0.04
G19A G33U C46U	0.1
G19C U20G C42A	0.06
G19C G27A U34G	0.1
G19U G29U G35C	0.09
G19A U20A G22C	1.08
G19U C23G G44U C46A	0
G19U G22C U28A	0.38
U20A C23A G29U	0.34
G19U U28C U38G	0.02
G19C G21U C23A A41G U43G	0
G19A G30C C31A U32C	1.85
G19A G22U C23A A39C	0.11
G19U C23G C42G	0.04
G19A U32C A41G C42U	0.01

Variant	self-cleavage
G19U U20A G21A A39C	0.01
G19U G29A C46A	0.34
G19A G44U C46A	0.11
G19A G22C A39C	0.09
G19U G22C G33A	0.23
U20A A26U G29A G33C G36C	0.01
G19U A39U G40U G44A	0.02
G19U G29C C45U C46G	1.24
G19U U20A U28A A39G G40U A41U C45U C46U	0.05
G19U G30U G33U C37A	0.05
G19C A26U G29A G33C G40U	0.19
G19U G27C U32A	0.16
G19C G27C A39C	0
G19U U20C A41U	0.39
G19C G27C U32G	0.09
G19A G36A U38G A39C	0.78
U20A C23A C46U	0.32
G19A G30A G40U	0.17
G19U U28G U34C C42A	0.01
G19A G35A A39C C45U	0.06
G19A C37U A39U	0.06
U20A C23G G30A G40A	0.02
G19C A26G G35A	0.08
G19U U20A C23U	2.27

Variant	self-cleavage
G19U U20A C23A	0.3
U20A A26G G29A G33C G40A C45G	0.09
U20A A25G G30U A41U	0.05
G19C A25U C31U A41U U43G C46U	0.05
G19U U43C C45A	0.16
G19U G29C G36A	0.11
G19U U20A G21A G22A G33A	0.66
G19U G27U C42A G44A	0.03
G19C G29A G33U U34G	0.06
G19U G36U U38C	0
G19U G36U U38G	0.03
G19C U20A G21A C31A U34C	0.02
G19U G33U C46U	0.01
G19U G29A U34G	0.15
G19U G35C C37G	0.02
G19A G27A G29U G35A	0.25
G19C C37A A39G	0.01
G19U A25C U34G C42U	0.36
G19U G21U C37U	0.02
G19A G21U G29U	0.67
G19A U20A C42A	0.04
G19C C23G G27C G36C	0.04
G19U G22C A41U	0.72
G19U G30C U32A	0.02

Variant	self-cleavage
G19U C23G A26C G35A	0.11
G19U G21A C23G U34A	0.11
G19C G21A G35U C37U	0.02
G19U A25U C31G	0.09
G19C G22U G29A	0.7
G19U G22U A25G U28A A41U	0.43
G19U G21U C42A	0.22
G19C G21U U32C G44A	0.04
G19U C23G A24G	0.8
G19C A24U U32C	0.08
G19U C37U A41U	0.04
G19A G21U G33C	0.06
G19U G30A A41U	0.28
G19A G40A U43G	0.02
G19U G21A A26G G27C G29A	0.51
U20A C23U A26U U28A C42U C46G	0.02
G19C G44A C46U	0.05
G19A U20G G21C G40U	0.03
G19A C45U C46G	0.81
G19A G21U G27U U38G	0.02
G19A U34A G35U G44A	0.02
G19U U28C U34G U38A	0.13
G19A G22U C31A G33A	0.07
G19U A39G U43A	0.11

Variant	self-cleavage
U20A A26G G33C U34C C45U	0.04
G19U A26C U32C	0.61
G19A U34G C37A	0.05
G19U C23A U32C C46G	0.19
G19U G29A G36A C37U	0.01
G19C G36U G40A	0.09
G19C U32C G35U	0.04
G19C G35A C42U	0
G19C C23G U28C G36A	0.02
G19C G35U U38C	0.03
G19U G30C C31G G40A	0.05
G19C U20A C42A C46A	1.03
U20A C23G U32A C37G	0.06
G19C U28C G44C	0.14
G19U G22C A26U G27A C31G	0.13
G19C G35C A41C C45U	0.01
G19A G21A A25G G27A G30A C31U C46A	0.88
G19U U20C U38G	0.01
G19C C37G C42U	0.02
G19C C23U C37U U38G G44A	0.01
G19U G29A U32A C37U C46G	0.04
G19U A26U C31U U34A C37A	0.03
G19C A25C G29A U32C C37U G44C	0.04
